# This is one part of the list.
# B1: Cohesin-mDC-ASGPR (Macaca mulatta) (protein)
# chain: LDITSHHHHHHDDLDAVRIKVDTVNAKPGDTVRIPVRFSGIPSKGIANCDFVYSYDPNVLEIIEIEPGDIIVDPNPDKSFDTAVYPDRKIIVFLFAEDSGTGAYAITKDGVFATIVAKVKEGAPNGLSVIKFVEVGGFANNDLVEQKTQFFDGGVNVGDTTEPATPTTPVTTPTTTDDLDAASSQNSKFQRDLVTLRTDFSNFTSNTVAEIQALTSQGSSVEEMIASLKAEVEVIKQEQQAVHSEMLLRVQRLMQDLNKLTCQVATLKNNASTERTCCPVNWVEHQDSCYWFSRSGMPWAEAEKHCQLENAHLVVINSREEQNFVQEHLSFAYTWMGLSDREGAWKWVDGTDYETGFQNWKPGQPDDWQGHGLGGGEDCAHFHPDGRWNDDVCQRPYYWVCEAGLTQASQESH
# Key:
# Experiment in all cases: glycan array binding signal (z-score within array); higher = stronger binding
# Settings in all cases: glycan notation: IUPAC condensed, linker removed
# [1] = molecular target: Fuc(a1-2)[Gal(a1-4)]Gal(b1-4)GlcNAc
# Summary of the method: (§1)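 Negative Z-scores can be read as non-binding. The Z-score is calculated within each array and then averaged across arrays of one protein sequence at different concentrations or buffers and across linkers. Arrays, 3228 in all, were curated from the Consortium for Functional Glycomics database and kept only where the protein sequence was available.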
# [2] = molecular target: Fuc(a1-2)[GalNAc(a1-3)]Gal
# Summary of the method: as §1
# [3] = molecular target: Fuc(a1-2)[GalNAc(a1-3)]Gal(b1-3)GalNAc(a1-3)[Fuc(a1-2)]Gal(b1-4)GlcNAc
# Summary of the method: as §1
# [4] = molecular target: Fuc(a1-2)[GalNAc(a1-3)]Gal(b1-3)GalNAc(b1-3)Gal(a1-4)Gal(b1-4)Glc
# Summary of the method: as §1
# [5] = molecular target: Fuc(a1-2)[GalNAc(a1-3)]Gal(b1-3)GlcNAc
# Summary of the method: as §1
# [6] = molecular target: Fuc(a1-2)[GalNAc(a1-3)]Gal(b1-3)GlcNAc(b1-2)Man(a1-3)[Fuc(a1-2)[GalNAc(a1-3)]Gal(b1-3)GlcNAc(b1-2)Man(a1-6)]Man(b1-4)GlcNAc(b1-4)GlcNAc
# Summary of the method: as §1
# [7] = molecular target: Fuc(a1-2)[GalNAc(a1-3)]Gal(b1-3)GlcNAc(b1-2)Man(a1-3)[Fuc(a1-2)[GalNAc(a1-3)]Gal(b1-3)GlcNAc(b1-2)Man(a1-6)]Man(b1-4)GlcNAc(b1-4)[Fuc(a1-6)]GlcNAc
# Summary of the method: as §1
# [8] = molecular target: Fuc(a1-2)[GalNAc(a1-3)]Gal(b1-3)GlcNAc(b1-3)GalNAc
# Summary of the method: as §1
# [9] = molecular target: Fuc(a1-2)[GalNAc(a1-3)]Gal(b1-3)GlcNAc(b1-6)GalNAc
# Summary of the method: as §1
# [10] = molecular target: Fuc(a1-2)[GalNAc(a1-3)]Gal(b1-4)Glc
# Summary of the method: as §1
# [11] = molecular target: Fuc(a1-2)[GalNAc(a1-3)]Gal(b1-4)GlcNAc
# Summary of the method: as §1
# [12] = molecular target: Fuc(a1-2)[GalNAc(a1-3)]Gal(b1-4)GlcNAc(b1-2)Man
# Summary of the method: as §1
# [13] = molecular target: Fuc(a1-2)[GalNAc(a1-3)]Gal(b1-4)GlcNAc(b1-2)Man(a1-3)[Fuc(a1-2)[GalNAc(a1-3)]Gal(b1-4)GlcNAc(b1-2)Man(a1-6)]Man(b1-4)GlcNAc(b1-4)GlcNAc
# Summary of the method: as §1
# [14] = molecular target: Fuc(a1-2)[GalNAc(a1-3)]Gal(b1-4)GlcNAc(b1-2)Man(a1-3)[Fuc(a1-2)[GalNAc(a1-3)]Gal(b1-4)GlcNAc(b1-2)Man(a1-6)]Man(b1-4)GlcNAc(b1-4)[Fuc(a1-6)]GlcNAc
# Summary of the method: as §1
# [15] = molecular target: Fuc(a1-2)[GalNAc(a1-3)]Gal(b1-4)GlcNAc(b1-3)Gal(b1-4)GlcNAc
# Summary of the method: as §1
# [16] = molecular target: Fuc(a1-2)[GalNAc(a1-3)]Gal(b1-4)GlcNAc(b1-3)Gal(b1-4)GlcNAc(b1-3)Gal(b1-4)GlcNAc
# Summary of the method: as §1
# [17] = molecular target: Fuc(a1-2)[GalNAc(a1-3)]Gal(b1-4)GlcNAc(b1-3)GalNAc
# Summary of the method: as §1
# [18] = molecular target: Fuc(a1-2)[GalNAc(a1-3)]Gal(b1-4)GlcNAc(b1-3)[Fuc(a1-2)[GalNAc(a1-3)]Gal(b1-4)GlcNAc(b1-6)]GalNAc
# Summary of the method: as §1
# [19] = molecular target: Fuc(a1-2)[GalNAc(a1-3)]Gal(b1-4)GlcNAc(b1-6)GalNAc
# Summary of the method: as §1
# [20] = molecular target: Fuc(a1-2)[GalNAc(a1-3)]Gal(b1-4)[Fuc(a1-3)]GlcNAc
# Summary of the method: as §1
# [21] = molecular target: Fuc(a1-2)[GalNAc(a1-3)]Gal(b1-4)[Fuc(a1-3)]GlcNAc(b1-3)GalNAc
# Summary of the method: as §1
# [22] = molecular target: Fuc(a1-2)[GalNAc(a1-4)]Gal(b1-4)GlcNAc
# Summary of the method: as §1
# [23] = molecular target: Fuc(a1-2)[GalNAc(b1-3)]Gal
# Summary of the method: as §1
# Fuc(a1-3)GlcNAc = molecular target: Fuc(a1-3)GlcNAc
# Summary of the method: as §1
# [24] = molecular target: Fuc(a1-3)[Gal(b1-4)]Glc6S
# Summary of the method: as §1
# [25] = molecular target: Fuc(a1-3)[Gal(b1-4)]GlcNAc
# Summary of the method: as §1
# [26] = molecular target: Fuc(a1-3)[Gal(b1-4)]GlcNAc(b1-2)Man
# Summary of the method: as §1
# [27] = molecular target: Fuc(a1-3)[Gal(b1-4)]GlcNAc(b1-2)Man(a1-3)[Fuc(a1-3)[Gal(b1-4)]GlcNAc(b1-2)Man(a1-6)]Man(b1-4)GlcNAc(b1-4)GlcNAc
# Summary of the method: as §1
# [28] = molecular target: Fuc(a1-3)[Gal(b1-4)]GlcNAc(b1-2)Man(a1-3)[Fuc(a1-3)[Gal(b1-4)]GlcNAc(b1-2)Man(a1-6)]Man(b1-4)GlcNAc(b1-4)[Fuc(a1-6)]GlcNAc
# Summary of the method: as §1
# [29] = molecular target: Fuc(a1-3)[Gal(b1-4)]GlcNAc(b1-3)Gal(b1-3)[Fuc(a1-4)]GlcNAc
# Summary of the method: as §1
# [30] = molecular target: Fuc(a1-3)[Gal(b1-4)]GlcNAc(b1-3)Gal(b1-4)[Fuc(a1-3)]GlcNAc
# Summary of the method: as §1
# [31] = molecular target: Fuc(a1-3)[Gal(b1-4)]GlcNAc(b1-3)Gal(b1-4)[Fuc(a1-3)]GlcNAc(b1-3)Gal(b1-4)[Fuc(a1-3)]GlcNAc
# Summary of the method: as §1
# [32] = molecular target: Fuc(a1-3)[Gal(b1-4)]GlcNAc(b1-3)GalNAc
# Summary of the method: as §1
# [33] = molecular target: Fuc(a1-3)[Gal(b1-4)]GlcNAc(b1-6)GalNAc
# Summary of the method: as §1
# [34] = molecular target: Fuc(a1-3)[Gal(b1-4)]GlcNAc(b1-6)[Gal(b1-3)GlcNAc(b1-3)]Gal(b1-4)Glc
# Summary of the method: as §1
# [35] = molecular target: Fuc(a1-3)[Gal(b1-4)]GlcNAc6S
# Summary of the method: as §1
# [36] = molecular target: Fuc(a1-3)[Gal3S(b1-4)]Glc
# Summary of the method: as §1
# [37] = molecular target: Fuc(a1-3)[Gal3S(b1-4)]GlcNAc
# Summary of the method: as §1
binder,measurement,setting,value
B1,glycan array binding signal (z-score),[1],-0.397
same,glycan array binding signal (z-score),[2],2.65
same,glycan array binding signal (z-score),[3],0.999
same,glycan array binding signal (z-score),[4],2.18
same,glycan array binding signal (z-score),[5],2.65
same,glycan array binding signal (z-score),[6],2.2
same,glycan array binding signal (z-score),[7],2.82
same,glycan array binding signal (z-score),[8],-0.207
same,glycan array binding signal (z-score),[9],3.22
same,glycan array binding signal (z-score),[10],2.19
same,glycan array binding signal (z-score),[11],2.19
same,glycan array binding signal (z-score),[12],2.31
same,glycan array binding signal (z-score),[13],1.06
same,glycan array binding signal (z-score),[14],0.667
same,glycan array binding signal (z-score),[15],2.48
same,glycan array binding signal (z-score),[16],1.17
same,glycan array binding signal (z-score),[17],-0.242
same,glycan array binding signal (z-score),[18],2.34
same,glycan array binding signal (z-score),[19],3.46
same,glycan array binding signal (z-score),[20],0.425
same,glycan array binding signal (z-score),[21],-0.231
same,glycan array binding signal (z-score),[22],3.47
same,glycan array binding signal (z-score),[23],2.61
same,glycan array binding signal (z-score),Fuc(a1-3)GlcNAc,-0.404
same,glycan array binding signal (z-score),[24],-0.399
same,glycan array binding signal (z-score),[25],-0.384
same,glycan array binding signal (z-score),[26],-0.385
same,glycan array binding signal (z-score),[27],-0.391
same,glycan array binding signal (z-score),[28],-0.416
same,glycan array binding signal (z-score),[29],-0.396
same,glycan array binding signal (z-score),[30],-0.359
same,glycan array binding signal (z-score),[31],-0.414
same,glycan array binding signal (z-score),[32],-0.392
same,glycan array binding signal (z-score),[33],1.97
same,glycan array binding signal (z-score),[34],-0.425
same,glycan array binding signal (z-score),[35],-0.397
same,glycan array binding signal (z-score),[36],-0.346
same,glycan array binding signal (z-score),[37],-0.393

# Source: the supplement of paper PMC8728848
